Laboratory results as given in the supplement of paper PMC3334620.
Over roughly 33,000 sequences, “E-score (-0.5 to 0.5)” has its median near -0.021; the highest 2% begin near 0.32. The list shows a part of the results.

Each sequence was assayed against T1, Zap1 (UniProt P47043) (assay: PBM E-score (8-mer binding enrichment) (E-score (-0.5 to 0.5)); higher = stronger / more preferred TF binding; most listed sequences are background and not binding sites). Details: protein concentration: 200 nM; construct: GST-full length.
T1 sequence: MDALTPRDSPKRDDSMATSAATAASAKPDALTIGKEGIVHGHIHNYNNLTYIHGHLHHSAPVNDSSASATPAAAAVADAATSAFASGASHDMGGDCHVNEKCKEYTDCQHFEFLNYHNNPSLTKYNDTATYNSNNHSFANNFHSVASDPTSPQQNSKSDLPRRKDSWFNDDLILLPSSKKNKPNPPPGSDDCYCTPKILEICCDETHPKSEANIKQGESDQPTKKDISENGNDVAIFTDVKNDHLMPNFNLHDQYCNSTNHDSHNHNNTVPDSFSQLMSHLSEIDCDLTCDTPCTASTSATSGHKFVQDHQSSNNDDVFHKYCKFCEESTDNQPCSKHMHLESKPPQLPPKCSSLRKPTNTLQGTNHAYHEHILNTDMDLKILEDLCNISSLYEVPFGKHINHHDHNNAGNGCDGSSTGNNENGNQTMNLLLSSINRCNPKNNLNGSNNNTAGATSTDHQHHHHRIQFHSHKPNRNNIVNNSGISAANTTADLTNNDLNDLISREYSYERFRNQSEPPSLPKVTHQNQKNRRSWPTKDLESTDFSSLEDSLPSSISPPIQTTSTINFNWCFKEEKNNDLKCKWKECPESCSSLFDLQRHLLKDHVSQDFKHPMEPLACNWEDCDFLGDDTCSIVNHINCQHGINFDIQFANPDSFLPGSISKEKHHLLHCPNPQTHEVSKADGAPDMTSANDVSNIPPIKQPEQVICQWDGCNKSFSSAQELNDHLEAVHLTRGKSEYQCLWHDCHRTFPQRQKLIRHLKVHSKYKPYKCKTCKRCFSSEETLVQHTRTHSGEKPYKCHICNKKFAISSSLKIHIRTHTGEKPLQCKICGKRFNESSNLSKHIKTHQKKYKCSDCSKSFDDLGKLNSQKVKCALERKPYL
Procedure, shortened: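 Yeast transcription factors carrying a GST tag, as full-length proteins or DNA-binding domains, were produced by PURExpress in vitro transcription/translation. About 100-200 nM protein was applied to universal all-10-mer Agilent arrays, double-stranded by primer extension on fresh or once-stripped slides. Bound protein was detected with fluorescent anti-GST, and scans were normalised with masliner. The Universal PBM Analysis Suite gave each ungapped eight-base word, pooled with its reverse complement, an E-score, a modified Wilcoxon-Mann-Whitney statistic.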
For AAAGTAGC, the “PBM E-score” value was -0.0277. With ACTCTGTA the “PBM E-score” value was 0.0505. For AGAACTCC, the “PBM E-score” value was -0.13. For GAGGTTGC, the “PBM E-score” value was 0.238. In the case of GTGGGGTA, the “PBM E-score” value is reported as 0.368. ACTCGTTG was tested, and the “PBM E-score” value was 0.0081. For AACATGAA, the “PBM E-score” value was 0.016. With TGTTCGAA the “PBM E-score” value was 0.0467. With GAAATCGA the “PBM E-score” value was -0.0672. With CCCTTCGA the “PBM E-score” value was 0.00585. With AGAATCCT the “PBM E-score” value was -0.19. With TAGTGTCA the “PBM E-score” value was -0.048. AGCTTCAA was tested, and the “PBM E-score” value was -0.0714. With TCCCGGAA the “PBM E-score” value was 0.0179. For ATTTTAAC, the “PBM E-score” value was 0.2. With ATTCACCC the “PBM E-score” value was -0.0639. AAGACAGC was tested, and the “PBM E-score” value was -0.174. With CGAGAGAA the “PBM E-score” value was -0.0531. For CTCGTTTC, the “PBM E-score” value was -0.0619. CCGTAATA was tested, and the “PBM E-score” value was 0.0379. For CGAGGCAC, the “PBM E-score” value was -0.231. For GGAATTAC, the “PBM E-score” value was 0.0274. For AATAGGAT, the “PBM E-score” value was 0.0662. For CGCTCTCA, the “PBM E-score” value was -0.222. For TACGTTGA, the “PBM E-score” value was -0.0752. GCTGAACC was tested, and the “PBM E-score” value was -0.0457. In the case of AAGATTCC, the “PBM E-score” value is reported as 0.0451. With ATGAAATC the “PBM E-score” value was 0.0985. In the case of GGAGTACC, the “PBM E-score” value is reported as 0.228. With ACACCCGA the “PBM E-score” value was 0.173. CCAATGAA was tested, and the “PBM E-score” value was -0.0107. CCCCCTAC was tested, and the “PBM E-score” value was -0.32. With CGTGTATC the “PBM E-score” value was -0.0249. ACCACTGA was tested, and the “PBM E-score” value was 0.142. With ATATAGTC the “PBM E-score” value was 0.0822. For GGAACCGA, the “PBM E-score” value was -0.0122. For AGTATATG, the “PBM E-score” value was 0.0652. With CATTGACA the “PBM E-score” value was -0.0917. CCCTCGTA was tested, and the “PBM E-score” value was 0.111. For AGGGCGTG, the “PBM E-score” value was -0.0776. In the case of CGCCCGGC, the “PBM E-score” value is reported as -0.316. CCAACGCG was tested, and the “PBM E-score” value was 0.0335. For AACGCCAT, the “PBM E-score” value was -0.0354. With ATGACCAT the “PBM E-score” value was 0.293. CACGAAGG was tested, and the “PBM E-score” value was 0.0742. In the case of AACGACGT, the “PBM E-score” value is reported as -0.171. With CTGCATGA the “PBM E-score” value was -0.167. For CCCGGCGA, the “PBM E-score” value was -0.312. For CCCCTAAC, the “PBM E-score” value was 0.232. With CATCACAG the “PBM E-score” value was -0.0928. With ACGCGAGA the “PBM E-score” value was 0.0934. GCAAACGA was tested, and the “PBM E-score” value was 0.0409. In the case of CTATCTTC, the “PBM E-score” value is reported as -0.0696. GAGCAAAC was tested, and the “PBM E-score” value was -0.0725. With AGGACTAT the “PBM E-score” value was -0.165. GAAGCGGA was tested, and the “PBM E-score” value was -0.0787. For AGAGAACA, the “PBM E-score” value was -0.0594. ACATAGCC was tested, and the “PBM E-score” value was -0.0651. ATTCCCGC was tested, and the “PBM E-score” value was 0.0634. With CCCGCTGA the “PBM E-score” value was -0.141. For AGGAGCCG, the “PBM E-score” value was -0.2. In the case of CCCTATTC, the “PBM E-score” value is reported as 0.0428. For AGGCAGAG, the “PBM E-score” value was -0.198. In the case of AACTATTC, the “PBM E-score” value is reported as -0.028. For TGTGGAAA, the “PBM E-score” value was 0.0425. ATCTTTTC was tested, and the “PBM E-score” value was -0.0462. In the case of ACTCCACC, the “PBM E-score” value is reported as -0.128. In the case of GGTGGTCA, the “PBM E-score” value is reported as 0.341. AGTTATTG was tested, and the “PBM E-score” value was 0.234. In the case of CACCTCGC, the “PBM E-score” value is reported as -0.187. In the case of CAAGCGTA, the “PBM E-score” value is reported as -0.219. AAGCCCTA was tested, and the “PBM E-score” value was -0.108. For CTTAACAC, the “PBM E-score” value was 0.0174. In the case of CCCTGCAA, the “PBM E-score” value is reported as 0.0695. In the case of ACGGGAGT, the “PBM E-score” value is reported as -0.0426. In the case of CCCATAGG, the “PBM E-score” value is reported as 0.129. With CACATTCC the “PBM E-score” value was 0.0768. In the case of CCTTGGCA, the “PBM E-score” value is reported as -0.177. With GTATCAAA the “PBM E-score” value was 0.0561. With ATGCGCGC the “PBM E-score” value was 0.0706. ACTTAAAA was tested, and the “PBM E-score” value was 0.167. For GTTATCGA, the “PBM E-score” value was 0.165. For ACGGTTGC, the “PBM E-score” value was 0.117. AAGGGGCC was tested, and the “PBM E-score” value was 0.0742. With CTGGCCAA the “PBM E-score” value was -0.153. For CGGCTATC, the “PBM E-score” value was -0.141. For CGGCAGTA, the “PBM E-score” value was -0.239. For AGGTAGAG, the “PBM E-score” value was -0.055. For ACAGCGAC, the “PBM E-score” value was -0.152. ATTCCCGG was tested, and the “PBM E-score” value was 0.0087. AGAAAATA was tested, and the “PBM E-score” value was 0.13. For CACGTGGG, the “PBM E-score” value was -0.175. For CCCGGTCC, the “PBM E-score” value was 0.047. With AAAAATAA the “PBM E-score” value was 0.228. For TTAAGAAA, the “PBM E-score” value was 0.0591. GCTCAAGC was tested, and the “PBM E-score” value was -0.181. With CCGTAGAA the “PBM E-score” value was -0.182. ACCGCGAC was tested, and the “PBM E-score” value was 0.24. In the case of AAGCTTGC, the “PBM E-score” value is reported as -0.153. For GGACGCTA, the “PBM E-score” value was -0.15. For GGCCCATA, the “PBM E-score” value was -0.0394. In the case of CCGATCGA, the “PBM E-score” value is reported as -0.0537. For AGTCACGC, the “PBM E-score” value was -0.2. For ATACGGAA, the “PBM E-score” value was 0.0528. For CTAGATAG, the “PBM E-score” value was 0.0146. In the case of ACCTGCCT, the “PBM E-score” value is reported as -0.202. For TCCCAGGA, the “PBM E-score” value was -0.172. For GATAGAAA, the “PBM E-score” value was 0.0479. AAATCTTC was tested, and the “PBM E-score” value was -0.0762. In the case of GAATTCCA, the “PBM E-score” value is reported as 0.0941.
